# Measurements from PubChem BioAssay AID588855 (National Center for Advancing Translational Sciences (NCATS), 2011).
# The whole screen tested about 410,000 compounds, of which about 5,000 (1.2%) were called active. The inconclusive results got no clear call from the source; some entries with a clear call stand among them for comparison. Calls come from the whole dose curve; as a rule, active = well fitted inhibition curve with a large enough effect; inconclusive = small, poorly fitted or top-dose-only effect; inactive = no such curve, though single readings can be large or run the other way. Potencies of inconclusive entries are doubtful fits and often do not repeat.
# Assay: qHTS for Inhibitors of TGF-b; note: nearly all actives have a fitted effect of over 65% in size
# Settings: HepG2 CAGA-GFP TGF-b/SMAD3 reporter, GFP fluorescence, 18 h, TGF-beta stimulated, 500 pg/mL final; series mostly up to 46.1 µM; activity, negative = inhibition: at the top concentration
# Summary of the method: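 GFP signal (ex488/em500-530) from TGF-beta-stimulated HEPG2 CAGA-GFP cells, 500 pg/mL final, 18 h at 37 degrees C in DMEM plus 1% FBS, normalized to unstimulated and DMSO-stimulated controls.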
# % is set by controls: 0 for no effect and ±100 for the full control effect; potency is the fitted concentration of half-maximal effect; tags give direction and shape of the fitted curve.
SMILES,Potency,"activity, negative = inhibition"
CC(=O)c1ccc(N2CCN(C(=O)C3CCN(S(=O)(=O)c4c(C)noc4/C=C/c4ccc(C)cc4)CC3)CC2)cc1,"inconclusive: 3.98 µM [inhibitor, partial curve, poor fit]",
COCc1nn2cc(-c3ccc(C)cc3)nc2s1,"inconclusive: 7.94 µM [inhibitor, partial curve, poor fit]",
Cc1cc(=O)[nH]c(N/N=C/c2ccccn2)n1,"inconclusive: 20 µM [inhibitor, single point]",
C=CCN1c2ccccc2C(=O)CS1(=O)=O,inactive,
O=C1c2ccccc2C(=O)N1CCC#C/C=C1\c2ccccc2C(=O)N1c1ccccc1,"inconclusive: 17.8 µM [inhibitor, partial curve, poor fit]",
O=C(NCC1CCCO1)Nc1cccc(Cl)c1 (stereo not drawn),,inactive: -9.43%
Cc1ccc(C(=O)c2c(N)c(-c3nc(-c4ccc5c(c4)OCO5)cs3)c3ccccn23)cc1C,"inconclusive: 2.24 µM [inhibitor, partial curve]",
S=C(NCc1ccccc1)NCc1cccc(CNC(=S)NCc2ccccc2)c1,"inconclusive: 22.4 µM [inhibitor, single point]",
CC(C)CNC(=S)N1CCC(C(=O)c2ccc(Cl)cc2)CC1,,inactive: -16.5%
COc1ccc(CC(N)c2csc(Nc3cc(Oc4ccccc4)ncn3)n2)cc1 (stereo not drawn),"inconclusive: 22.4 µM [inhibitor, single point]",
COc1ccc(N2CCC(CNC(=S)Nc3cc(C)ccc3C)C2)cc1 (stereo not drawn),"inconclusive: 3.98 µM [inhibitor, partial curve, poor fit]",
Cc1ccc(NC(=O)CC(=O)c2ccc([N+](=O)[O-])cc2)cc1S(=O)(=O)Nc1cccc(Cl)c1,"inconclusive: 17.8 µM [inhibitor, partial curve, poor fit]",
CC1CCCCN1CCCNC(=O)c1ccc2c(=O)n(CCc3ccccc3)c(=O)[nH]c2c1 (stereo not drawn),"inconclusive: 35.5 µM [inhibitor, single point]",
CCOC(=O)c1c(/N=C/N(C)C)sc2c1CCC2,"inconclusive: 3.55 µM [inhibitor, single point]",
CCC1(C)CC2(CCCN(CCC(=O)c3ccccc3)C2)CCO1 (stereo not drawn),"inconclusive: 25.1 µM [inhibitor, single point]",
CSc1ccc(Cl)c(C(=O)OCC(=O)Nc2ccccc2OC(F)F)c1,"inconclusive: 15.8 µM [inhibitor, single point]",
COc1ccc(NC(=O)CCCN2C(=O)C(c3ccccc3)Oc3cccnc32)c(OC)c1 (stereo not drawn),inactive,
C[C@H](NC(=O)c1nc[nH]c1C(=O)NCc1ccc(CNC(=O)OC(C)(C)C)cc1)c1ccccc1,"inconclusive: 3.98 µM [inhibitor, partial curve, poor fit]",
